# Results reported in publication PMC4336329 (PLoS ONE, 2015).
# The whole screen tested about 310,000 compounds, of which about 14,000 (4.5%) showed an effect of 50% or more. The effect is printed as a negative number. The list shows a part of the results.
# Target: human ether-à-go-go-related gene (hERG) potassium channel (human, UniProt Q12809)
# Test: primary screen, population patch clamp on CHO cells stably expressing hERG
# 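Also: peak tail current of the secondary pulse compared with the same well before compound.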
# Sequence of human ether-à-go-go-related gene (hERG) potassium channel (Q12809 whole entry, looked up): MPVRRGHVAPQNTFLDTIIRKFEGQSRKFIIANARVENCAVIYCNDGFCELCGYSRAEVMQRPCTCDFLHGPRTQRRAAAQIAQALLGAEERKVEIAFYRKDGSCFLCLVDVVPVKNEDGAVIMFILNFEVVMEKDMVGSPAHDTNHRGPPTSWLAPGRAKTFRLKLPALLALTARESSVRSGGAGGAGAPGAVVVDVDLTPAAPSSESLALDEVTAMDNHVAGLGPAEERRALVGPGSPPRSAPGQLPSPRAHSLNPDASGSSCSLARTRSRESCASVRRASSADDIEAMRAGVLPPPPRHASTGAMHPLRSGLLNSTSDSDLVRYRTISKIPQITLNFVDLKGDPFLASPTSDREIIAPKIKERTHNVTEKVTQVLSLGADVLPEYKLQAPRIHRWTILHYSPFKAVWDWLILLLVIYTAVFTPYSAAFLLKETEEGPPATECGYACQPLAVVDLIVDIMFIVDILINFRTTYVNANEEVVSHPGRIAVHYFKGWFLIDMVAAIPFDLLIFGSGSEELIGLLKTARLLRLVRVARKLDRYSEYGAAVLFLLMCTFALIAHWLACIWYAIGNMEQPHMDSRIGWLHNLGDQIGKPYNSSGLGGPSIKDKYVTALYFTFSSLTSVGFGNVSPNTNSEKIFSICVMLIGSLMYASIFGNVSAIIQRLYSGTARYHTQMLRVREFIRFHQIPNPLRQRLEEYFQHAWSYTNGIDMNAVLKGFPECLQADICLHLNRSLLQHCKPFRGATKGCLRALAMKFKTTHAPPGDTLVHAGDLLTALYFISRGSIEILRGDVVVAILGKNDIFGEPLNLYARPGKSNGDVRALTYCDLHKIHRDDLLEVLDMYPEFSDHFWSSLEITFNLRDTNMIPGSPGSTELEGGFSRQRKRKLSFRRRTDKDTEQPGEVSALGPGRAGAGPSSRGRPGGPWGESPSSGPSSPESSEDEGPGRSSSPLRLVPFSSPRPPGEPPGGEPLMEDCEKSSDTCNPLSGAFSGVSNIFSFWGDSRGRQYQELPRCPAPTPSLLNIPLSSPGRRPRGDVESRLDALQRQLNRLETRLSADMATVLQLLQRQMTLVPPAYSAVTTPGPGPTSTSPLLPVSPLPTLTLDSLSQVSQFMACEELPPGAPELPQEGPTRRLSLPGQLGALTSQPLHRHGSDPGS
row,SMILES,"hERG current change (%, negative = inhibition) at 10uM [%]"
1,CCOc1cc(/C=C2\SC(=Nc3ccccc3)N(c3ccccc3)C2=O)ccc1OCC(=O)O,-17.9
2,COc1ccc(NC(=O)CSc2nc3ccccc3c(=O)n2CCNC(C)=O)c(OC)c1,-25.1
3,COc1ccc(N(C(=O)c2cc3ccccc3oc2=O)C2C=CS(=O)(=O)C2)cc1 (stereo not drawn),8.03
4,COC(=O)NNC(=O)c1ccccc1C,-11.7
5,COC(=O)c1cc(S(=O)(=O)NCCc2ccccc2)c[nH]1,5.93
6,Cc1cc(C)n(-c2ccc(NC(=O)C3CCCCN3C(=O)c3cccs3)cc2)n1 (stereo not drawn),-21.3
7,CCn1cc(C(=O)OCC(=O)c2ccc(Cl)cc2)c(=O)c2ccc(C)nc21,-46.6
8,O=C(NCc1ccc(Cl)cc1)C1CCCO1 (stereo not drawn),23.6
9,CCOC(=O)c1c(NC(=O)c2ccc(S(=O)(=O)N(C)CC3CCCO3)cc2)sc2c1CC(C)(C)NC2(C)C (stereo not drawn),-6.96
10,CCN(c1cccc(C)c1)S(=O)(=O)c1ccc(OC)c([N+](=O)[O-])c1,13.5
11,CCOC(=O)C(c1ccccc1)C(Nc1ccccc1)c1ccccn1 (stereo not drawn),8.6
12,CN1CCN(CCOCCOc2ccc(Br)cc2Cl)CC1.O=C(O)C(=O)O,-14.2
13,CCOC(=O)c1c(C)n(-c2ccc(OC)cc2)c2c(C/C(C)=N/O)c(Br)c(OC)c(O)c12,1.92
14,CCOC(=O)c1[nH]c(C)c(/C(O)=C2\C(=O)C(=O)N(CCN(C)C)C2c2ccncc2)c1C (stereo not drawn),17.1
15,Cc1cccc(NC(=O)CSc2nncn2-c2ccccn2)c1,-1.31
16,COc1ccc(/C=N/NC(=O)C2COc3ccccc3O2)cc1OC (stereo not drawn),27.9
17,CCOC(=O)C1CCN(C(=O)COc2cc(C)c(Br)c(C)c2)CC1,-43.2
18,CC1CCCC(NC(=O)CSc2nnc(N)s2)C1C (stereo not drawn),9.19
19,CC(=O)c1sc(NC(=O)C2COc3ccccc3O2)nc1C (stereo not drawn),-10.2
20,Cc1cc(-c2ccccc2)n[nH]1,10.5
21,CCOc1ccccc1NC(=S)N1CCC(NC(=O)NC23CC4CC(CC(C4)C2)C3)CC1,-13.7
22,Cc1ccc(/C=C/C(=O)N2CCN(c3ncccn3)CC2)o1,2.26
23,N/C(COc1ccc(Cl)cc1)=N\NS(=O)(=O)c1ccccc1,7.04
24,CC(=O)N/C(N)=N/c1nc2cc(C)ccc2o1,2.68
